Results taken from the supplement of paper PMC3334620.
The full ranking holds about 33,000 sequences; the median of “E-score (-0.5 to 0.5)” is about -0.017, and the highest 2% start at about 0.3. This is one part of the list.

Target: T1, Sut1 (UniProt P53032)
T1 sequence: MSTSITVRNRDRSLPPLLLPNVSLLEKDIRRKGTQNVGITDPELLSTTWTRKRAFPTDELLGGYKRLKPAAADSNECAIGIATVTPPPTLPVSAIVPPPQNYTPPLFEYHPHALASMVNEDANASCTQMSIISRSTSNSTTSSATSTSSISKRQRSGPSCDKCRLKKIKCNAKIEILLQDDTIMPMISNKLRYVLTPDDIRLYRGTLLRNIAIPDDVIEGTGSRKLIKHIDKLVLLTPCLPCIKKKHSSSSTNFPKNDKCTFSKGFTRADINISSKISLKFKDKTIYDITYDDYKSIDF
Test: PBM E-score (8-mer binding enrichment) (E-score (-0.5 to 0.5)); higher = stronger / more preferred TF binding; most listed sequences are background and not binding sites
Settings: protein concentration: 200 nM; construct: GST-full length
Experimental: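 Universal 'all 10-mer' protein binding microarrays (Agilent AMADID 015681) probed with GST-tagged S. cerevisiae TFs (full-length or DBD) made by in vitro transcription/translation (PURExpress), about 100-200 nM. Bound TF was detected with fluorescent anti-GST. Each ungapped 8-mer (which stands for itself and its reverse complement) is scored by the PBM enrichment score (E-score), a modified Wilcoxon-Mann-Whitney statistic from -0.5 to +0.5, computed with the Universal PBM Analysis Suite. Scale: above 0.35 generally sequence-specific binding.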

Sequence | PBM E-score
CCATAGAA | 0.0964
TGCGTTAA | -0.00864
CAAAGGGA | -0.213
AGCACGTC | -0.202
AGTACCAA | 0.164
CCGGGCCC | 0.281
ACGGCGGA | 0.0877
CTTGACTC | -0.189
ATGAGGCC | -0.148
ACTTACGG | 0.22
AAATGGCC | -0.0988
ACAGACGG | -0.0962
GCTGTGGA | -0.148
AGCCGATA | -0.0788
GGTCTGAA | 0.108
TGATCTAA | 0.111
GTAGAAAA | 0.153
TTGGTAAA | 0.167
GAATCGCC | -0.17
CCCGTGAA | -0.00725
AGGCTTCC | -0.0189
AGGAGGCA | -0.238
CGGATGTA | 0.0559
CGCAAAAA | 0.0966
CAAGAATC | 0.0454

Sequence | PBM E-score
TGCTGACA | 0.0537
TATAATCA | 0.203
CAGGACAC | -0.248
ATCAACGA | 0.0449
AAATATAT | 0.365
AACAACCG | 0.18
ATTCGTGA | 0.0284
GCACGAAA | 0.105
GCGCTGTA | -0.161
AACACCCA | -0.0569
ACATTGCG | -0.125
ATCATATC | 0.153
GACAATGA | -0.0173
GCAGCCGA | -0.067
GAGTGCCA | -0.183
ATAGAGAT | 0.0602
GCCAAGTA | -0.191
CGCTACTA | 0.269
GGGGATAA | -0.115
AACAGTCG | 0.0218
AAAGCAAC | 0.0602
TCTAGCCA | -0.0636
ACTCCGGG | 0.491
CCCTTCGC | -0.245
GGTCTTCA | -0.0448

Sequence | PBM E-score
CAAGCCGA | 0.0166
AAATGTAT | 0.304
AAGCACAG | 0.0105
CAGATGTA | -0.151
AACATTAT | 0.263
ACCCCACT | -0.0877
CATATAAC | 0.141
CGGGTTCA | 0.0274
ACAGTATG | 0.00147
CACTTCCA | -0.142
AGCGCCTC | -0.0302
AGTCCACA | -0.0475
ACTCTGAA | 0.0683
AATACCGA | 0.158
CTAATCGA | 0.0022
CGTGACTA | 0.0165
CAATGCAG | -0.113
CTTACAGA | -0.104
AGCGCAGC | -0.149
AGATAAGA | 0.101
ATAGAGAA | 0.179
CCCGATGA | -0.022
TATGGCGA | -0.304
ACAGGCAC | -0.0536
CAGTCAAA | 0.0987

Sequence | PBM E-score
CGCATAGA | -0.0782
CACTTGAA | 0.0903
TCTTAACA | 0.0137
AAACGCTT | 0.0228
AGTTAACC | 0.119
AGGAGCAT | -0.108
AATACATT | 0.245
CGAGACGC | 0.0426
AAGCGTGT | -0.26
AGTTGTTA | 0.124
ATCCGCCG | 0.0713
AGCCAGTG | -0.265
TCGGGTCA | 0.084
CGCTATAA | 0.0282
AGTACTAT | 0.0894
CCAAATGC | 0.00488
ACTATGCC | -0.0101
ATTACTCA | 0.162
AACACTCT | 0.113
CCCTGCGG | -0.0369
AAAAGTGG | 0.129
ACAATGTC | 0.0704
GGGCCCCA | -0.22
CATAGGTC | -0.0441
AGAAGCCC | 0.167

Sequence | PBM E-score
CGCAGACG | 0.0141
AGTCCTCA | 0.0293
ATCCTGCA | -0.118
CAAGTACG | -0.155
ATTGAATG | 0.236
GACCGATC | -0.111
GTGTTGAA | 0.0558
AAGGTCCA | -0.135
CCGCGCAG | 0.118
CCGTATCG | -0.11
GGGCCACA | -0.161
CCGTCGTC | -0.227
ATTCGCGC | 0.0499
CGCTTAAC | 0.0539
CAGACGAG | -0.263
AGTGACAC | -0.0313
AATCTACA | 0.122
CCCTACTC | -0.123
AGCTTGAC | -0.0781
CCCCCTTA | -0.263
GAATCACA | 0.0387
AACCTATC | 0.132
AAAGCTCT | -0.177
AGCGGAGG | -0.201
CTTGGCTC | -0.095

Sequence | PBM E-score
AGATACCG | 0.0712
ACGTAGGC | -0.171
GGCGTTAC | -0.213
ACCTTAGG | -0.192
CCGTCACA | -0.279
TACTTTCA | 0.276
ACGAAGGG | -0.206
CTTACATA | 0.198
CAATCGTC | 0.0186
GTAGCTCA | -0.0732
TAACGACA | 0.144
GATTCGGC | 0.0544
ATCAAAGA | 0.0209
CCCTAGAG | -0.344
GCCTATCC | -0.109
AGCATGTC | -0.0445
ACGTTCAA | 0.0492
GGATAACA | 0.143
ATATTAGG | 0.163
AGTACCCC | -0.077
AGGATGGA | -0.195
ATCGACAA | 0.115
ATTGCAAT | 0.0774
CTTCGAAC | 0.0649
GACTCACC | -0.0917

Sequence | PBM E-score
GCCACTCA | -0.126
TATAGGAA | 0.146
CAGTTGTC | -0.144
GTATCAGA | 0.017
GGACTGCA | 0.0549
CTTGGGTA | -0.0404
ATCGGCGG | 0.00281
GACTAGAA | 0.198
ACATCAGC | -0.0232
CGGACCCC | 0.112
AAACTAAT | 0.292
ATCTTCGG | 0.23
GTTACAAC | 0.106
ACGTGCCT | -0.173
ATTTGGGA | 0.0433
ATCCCATC | -0.16
ATGTCAAT | 0.134
GTCCCCAC | -0.143
GAGTGGTA | -0.0154
AGCCTGCG | -0.222
AATCGAAC | -0.0301
ACCTCCAA | -0.127
